Assay [1] concerns the target T1, GFP tagged wild-type Aub (ovary) (Drosophila melanogaster) (UniProt O76922).
T1 sequence (chain, symmetric dimethylarginine (sDMA) in the N-terminal region, detected with SYM11): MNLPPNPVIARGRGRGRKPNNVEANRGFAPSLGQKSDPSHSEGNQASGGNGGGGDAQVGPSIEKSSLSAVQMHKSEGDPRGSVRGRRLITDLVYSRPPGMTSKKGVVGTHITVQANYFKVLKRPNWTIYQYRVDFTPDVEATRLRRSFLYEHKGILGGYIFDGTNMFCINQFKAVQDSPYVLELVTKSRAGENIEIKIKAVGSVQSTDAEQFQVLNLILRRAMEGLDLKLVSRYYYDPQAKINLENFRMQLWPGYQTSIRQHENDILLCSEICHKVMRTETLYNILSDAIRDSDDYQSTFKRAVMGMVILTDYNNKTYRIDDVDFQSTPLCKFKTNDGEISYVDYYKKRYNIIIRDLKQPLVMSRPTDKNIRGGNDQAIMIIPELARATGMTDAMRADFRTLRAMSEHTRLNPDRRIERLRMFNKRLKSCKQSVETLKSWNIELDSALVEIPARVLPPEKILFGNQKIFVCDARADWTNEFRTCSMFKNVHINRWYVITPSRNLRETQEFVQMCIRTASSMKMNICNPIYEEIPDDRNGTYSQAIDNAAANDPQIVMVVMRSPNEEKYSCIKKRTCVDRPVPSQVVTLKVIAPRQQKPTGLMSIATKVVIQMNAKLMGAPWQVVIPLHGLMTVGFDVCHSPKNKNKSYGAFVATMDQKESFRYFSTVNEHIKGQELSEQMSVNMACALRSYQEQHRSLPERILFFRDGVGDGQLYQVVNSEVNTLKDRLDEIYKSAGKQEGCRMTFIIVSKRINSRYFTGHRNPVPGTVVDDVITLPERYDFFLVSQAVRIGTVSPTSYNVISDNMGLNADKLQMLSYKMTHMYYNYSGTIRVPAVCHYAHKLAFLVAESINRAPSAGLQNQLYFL
Description: co-IP; GFP tagged Aub immunoprecipitated from ovarian lysate (NT2 buffer: 50 mM Tris pH 7.4, 150 mM NaCl, 1 mM MgCl2, 0.05% Igepal), 4 °C, 4 h; Western blot.

By UniProt entry, the sequences of proteins in these tests, tags left out.
UniProt P25823: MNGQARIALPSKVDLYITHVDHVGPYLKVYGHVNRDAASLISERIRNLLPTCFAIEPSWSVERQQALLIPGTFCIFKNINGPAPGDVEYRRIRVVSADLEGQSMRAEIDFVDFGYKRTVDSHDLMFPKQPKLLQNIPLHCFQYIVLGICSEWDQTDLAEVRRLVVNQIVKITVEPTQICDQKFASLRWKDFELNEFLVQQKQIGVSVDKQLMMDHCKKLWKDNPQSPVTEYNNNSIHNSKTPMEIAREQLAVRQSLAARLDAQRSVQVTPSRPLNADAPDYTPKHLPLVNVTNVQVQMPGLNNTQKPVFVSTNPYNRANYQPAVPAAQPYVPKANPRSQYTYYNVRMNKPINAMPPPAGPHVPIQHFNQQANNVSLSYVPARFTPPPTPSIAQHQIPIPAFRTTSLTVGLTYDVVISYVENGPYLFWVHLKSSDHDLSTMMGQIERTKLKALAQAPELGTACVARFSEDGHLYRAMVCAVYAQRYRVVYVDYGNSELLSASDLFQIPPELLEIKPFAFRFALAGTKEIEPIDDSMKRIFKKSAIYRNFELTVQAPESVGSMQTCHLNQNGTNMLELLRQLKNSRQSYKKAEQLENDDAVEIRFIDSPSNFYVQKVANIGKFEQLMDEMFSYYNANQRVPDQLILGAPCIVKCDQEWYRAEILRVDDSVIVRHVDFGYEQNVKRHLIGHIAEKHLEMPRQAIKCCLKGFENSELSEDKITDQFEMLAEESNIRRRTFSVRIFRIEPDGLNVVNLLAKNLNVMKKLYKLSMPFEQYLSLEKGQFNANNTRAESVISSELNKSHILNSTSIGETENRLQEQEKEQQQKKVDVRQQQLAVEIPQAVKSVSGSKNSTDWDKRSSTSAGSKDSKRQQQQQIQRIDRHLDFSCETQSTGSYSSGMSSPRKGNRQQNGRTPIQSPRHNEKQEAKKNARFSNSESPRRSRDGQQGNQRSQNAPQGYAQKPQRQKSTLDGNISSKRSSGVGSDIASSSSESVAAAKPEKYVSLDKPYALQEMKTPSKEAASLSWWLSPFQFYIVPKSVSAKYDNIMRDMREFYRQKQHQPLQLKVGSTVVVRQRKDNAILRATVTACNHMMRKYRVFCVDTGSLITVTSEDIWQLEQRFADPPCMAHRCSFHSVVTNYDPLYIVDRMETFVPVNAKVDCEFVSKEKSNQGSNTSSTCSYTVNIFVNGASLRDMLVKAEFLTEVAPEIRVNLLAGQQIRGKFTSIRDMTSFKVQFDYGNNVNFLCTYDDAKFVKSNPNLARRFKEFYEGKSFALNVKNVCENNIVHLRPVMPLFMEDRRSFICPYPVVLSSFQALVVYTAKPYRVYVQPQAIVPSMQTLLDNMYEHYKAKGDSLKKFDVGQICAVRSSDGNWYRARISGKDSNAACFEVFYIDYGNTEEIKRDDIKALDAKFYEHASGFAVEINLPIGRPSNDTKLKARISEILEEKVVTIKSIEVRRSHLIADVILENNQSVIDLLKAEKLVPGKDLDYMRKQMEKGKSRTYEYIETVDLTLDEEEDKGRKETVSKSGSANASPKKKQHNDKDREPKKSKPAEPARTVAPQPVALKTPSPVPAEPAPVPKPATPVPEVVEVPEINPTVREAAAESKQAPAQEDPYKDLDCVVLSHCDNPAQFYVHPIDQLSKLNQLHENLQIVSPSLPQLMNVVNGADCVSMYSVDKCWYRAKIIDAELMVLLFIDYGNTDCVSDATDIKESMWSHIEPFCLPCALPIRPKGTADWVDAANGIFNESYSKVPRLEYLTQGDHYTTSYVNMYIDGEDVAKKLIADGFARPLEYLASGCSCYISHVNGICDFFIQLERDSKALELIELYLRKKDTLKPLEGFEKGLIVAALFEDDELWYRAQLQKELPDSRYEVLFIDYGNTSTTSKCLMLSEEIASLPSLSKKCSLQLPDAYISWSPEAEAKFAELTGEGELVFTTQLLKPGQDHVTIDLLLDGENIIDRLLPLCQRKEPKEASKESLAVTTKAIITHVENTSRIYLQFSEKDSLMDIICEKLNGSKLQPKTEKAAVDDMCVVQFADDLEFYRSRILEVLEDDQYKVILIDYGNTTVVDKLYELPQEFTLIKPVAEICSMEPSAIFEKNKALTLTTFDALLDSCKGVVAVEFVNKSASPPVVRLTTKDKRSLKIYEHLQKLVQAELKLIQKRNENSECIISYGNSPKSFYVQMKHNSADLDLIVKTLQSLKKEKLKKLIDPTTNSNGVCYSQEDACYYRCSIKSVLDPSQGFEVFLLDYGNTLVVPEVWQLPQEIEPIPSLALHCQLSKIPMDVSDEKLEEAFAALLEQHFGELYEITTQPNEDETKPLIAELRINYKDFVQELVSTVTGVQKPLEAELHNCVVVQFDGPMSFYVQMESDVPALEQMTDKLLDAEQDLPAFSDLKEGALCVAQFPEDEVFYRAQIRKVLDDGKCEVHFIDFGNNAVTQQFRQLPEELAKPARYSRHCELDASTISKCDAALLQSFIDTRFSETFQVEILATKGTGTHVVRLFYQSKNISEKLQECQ

Assay [2] deals with T2, Aub expressed in S2 cells (tag not named) (Drosophila melanogaster) (UniProt O76922).
T2 sequence: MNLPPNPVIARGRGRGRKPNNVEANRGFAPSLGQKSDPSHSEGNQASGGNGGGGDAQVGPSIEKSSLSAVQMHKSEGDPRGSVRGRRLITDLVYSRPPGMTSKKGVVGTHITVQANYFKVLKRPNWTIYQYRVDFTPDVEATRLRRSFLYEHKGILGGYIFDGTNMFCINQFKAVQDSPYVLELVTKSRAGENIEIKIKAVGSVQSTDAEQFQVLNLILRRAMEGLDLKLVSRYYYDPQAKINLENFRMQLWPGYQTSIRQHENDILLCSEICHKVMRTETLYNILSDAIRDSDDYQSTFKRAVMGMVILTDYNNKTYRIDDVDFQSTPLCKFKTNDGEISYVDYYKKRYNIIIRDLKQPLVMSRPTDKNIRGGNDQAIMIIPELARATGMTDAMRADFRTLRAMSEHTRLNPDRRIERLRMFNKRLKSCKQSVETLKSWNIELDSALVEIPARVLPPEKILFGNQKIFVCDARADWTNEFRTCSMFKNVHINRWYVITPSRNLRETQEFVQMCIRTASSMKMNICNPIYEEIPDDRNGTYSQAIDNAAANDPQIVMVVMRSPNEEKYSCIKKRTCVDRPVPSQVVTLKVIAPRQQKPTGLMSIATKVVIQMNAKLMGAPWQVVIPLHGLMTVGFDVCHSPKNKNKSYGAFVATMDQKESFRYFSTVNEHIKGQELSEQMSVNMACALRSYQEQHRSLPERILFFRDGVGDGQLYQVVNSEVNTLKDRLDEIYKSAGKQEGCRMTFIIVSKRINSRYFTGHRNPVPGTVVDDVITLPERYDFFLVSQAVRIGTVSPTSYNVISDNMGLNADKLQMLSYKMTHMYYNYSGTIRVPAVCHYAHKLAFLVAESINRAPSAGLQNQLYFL
Description: co-IP; tagged proteins co-expressed in S2 cells; lysis buffer 20 mM Tris pH 7.4, 200 mM KCl, 0.1% Tween-20, 0.1% Igepal, 100 μg/mL RNase A; anti-FLAG, anti-HA or anti-GFP beads, 4 °C, 4 h; Western blot; in Fig. 6e lysates were incubated with or without ssRNA oligo before the co-IP.

Assay [3] has as its target T3, GFP-tagged truncated Krimper lacking its N terminal dimerization domain (Drosophila melanogaster) (UniProt A1ZAC4).
T3 sequence: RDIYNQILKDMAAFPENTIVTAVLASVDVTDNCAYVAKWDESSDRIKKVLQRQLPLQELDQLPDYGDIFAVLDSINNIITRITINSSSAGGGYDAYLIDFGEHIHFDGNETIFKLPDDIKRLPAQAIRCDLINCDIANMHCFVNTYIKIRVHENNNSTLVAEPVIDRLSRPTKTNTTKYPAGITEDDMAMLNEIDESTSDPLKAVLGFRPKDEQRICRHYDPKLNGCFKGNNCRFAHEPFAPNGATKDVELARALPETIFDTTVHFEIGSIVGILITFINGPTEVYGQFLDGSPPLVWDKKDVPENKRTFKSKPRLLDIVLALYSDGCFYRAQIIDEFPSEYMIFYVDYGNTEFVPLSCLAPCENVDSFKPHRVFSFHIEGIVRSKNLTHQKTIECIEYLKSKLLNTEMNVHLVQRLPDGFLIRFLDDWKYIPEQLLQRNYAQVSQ
Description: co-IP; two-step sequential immunoprecipitation from S2 cells co-expressing FLAG-Aub, HA-Ago3 and GFP-deltaN-Krimper: FLAG IP, elution with 3X FLAG peptide, then GFP IP; Western blot; lysis buffer 20 mM Tris pH 7.4, 200 mM KCl, 0.1% Tween-20, 0.1% Igepal, 100 μg/mL RNase A.

These are yes or no findings as the source states them, for the method shown. In cells and extracts the contact can be indirect. Some results given as binding are weak or reduced against the parent protein; the word gives no strength. Tags and fused reporters may be left off the sequences shown.

For the molecule Tudor (from UniProt P25823 1-2515), in assay [1], the binding entry is listed as “binds”.

B1: Valois (Vls) (protein, UniProt Q9VIP8 1-367)
chain: MFPQRSSELYRTPVTHQPPPALELAGNLEYPNLNIADLNARLENLSPRLHDCWDSIAINDHNHLALATNRREGRQWWGMLFGYGRDQMHHMSVDSANFKLQAEHTVNIVRYAEDDFLLVALGDTRLQAWSTYSKVRDSQSPYCLFLVGESSAHPTPISQLSVFKADPRTAVSGSADSTLNVWDLSGADMVSTYRSRSSHTDKLTGLATPAASVDKFVTCDRGGCARLWDVRAAAPSSTCLYADASHVLSFTSAAWAAASELQGDNHIYLGDYDGKVHTLDIRVPRKLAETREYFDKGHVAQLLINGPHLAAMSNLPASVKVANVQAGHEFIYTHQDTHSRLTDAVWTDDSTLITIGHGRKMVTHAIK
Take B1: the binding result in assay [2] is given as “binds”.

B2: HA-tagged Ago3 (protein, UniProt Q7PLK0 1-867)
chain: MSGRGNLLSLFNKNAGNMGKSISSKDHEIDSGLDFNNSESSGERLLSSHNIETDLITTLQHVNISVGRGRARLIDTLKTDDHTSNQFITSESKENITKKTKGPESEAIASENGLFFPDLIYGSKGSSVNIYCNYLKLTTDESKGVFNYEVRFFPPIDSVHLRIKYLNDHKDKLGGTKTFDGNTLYLPILLPNKMTVFISKAEDVELQIRILYKKKEEMRNCTQLYNILFDRVMKVLNYVKFDRKQFDPSRPKIIPLAKLEVWPGYVTAVDEYKGGLMLCCDVSHRILCQKTVLEMLVDLYQQNVEHYQESARKMLVGNIVLTRYNNRTYKINDICFDQNPTCQFEIKTGCTSYVEYYKQYHNINIKDVNQPLIYSIKKSRGIPAERENLQFCLIPELCYLTGLRDEVRSDNKLMREIATFTRVSPNQRQMALNKFYENVSNTPAAQEILNSWGLSLTNNSNKISGRQMDIEQIYFSKISVSAGRSAEFSKHAVTNEMLKVVHLSKWIIIHLRNYRQAATSLLDNMKQACESLGMNISNPTMISLDHDRIDAYIQALRRNITMNTQMVVCICHNRRDDRYAAIKKICCSEIPIPSQVINAKTLQNDLKIRSVVQKIVLQMNCKLGGSLWTVKIPFKNVMICGIDSYHDPSNRGNSVAAFVASINSSYSQWYSKAVVQTKREEIVNGLSASFEIALKMYRKRNGKLPTNIIIYRDGIGDGQLYTCLNYEIPQFEMVCGNRIKISYIVVQKRINTRIFSGSGIHLENPLPGTVVDQHITKSNMYDFFLVSQLVRQGTVTPTHYVVLRDDCNYGPDIIQKLSYKLCFLYYNWAGTVRIPACCMYAHKLAYLIGQSIQRDVAEALSEKLFYL
For B2, in assay [3], the binding entry is listed as “binds”.

The record behind these values is publication PMC8249470, “Binding of guide piRNA triggers methylation of the unstructured N-terminal region of Aub leading to assembly of the piRNA amplification complex” (Nature Communications, 2021).
